Legend:
TGFβ1 (R&D systems) = TGFβ1 (R&D systems) (UniProt P01137 partial chain); assay: cell-based or functional assay
[1] = molecular target: T1, anti-CD16scFv/IL-15RαSu/IL-21 fusion protein; assay: co-expression in CHO-K1 cells
T1 construct: also called 16s21

[2] = molecular target: T2, IL-7/IL-15RαSu fusion protein; assay: co-expression in CHO-K1 cells
T2 construct: also called 7s
T2 chain: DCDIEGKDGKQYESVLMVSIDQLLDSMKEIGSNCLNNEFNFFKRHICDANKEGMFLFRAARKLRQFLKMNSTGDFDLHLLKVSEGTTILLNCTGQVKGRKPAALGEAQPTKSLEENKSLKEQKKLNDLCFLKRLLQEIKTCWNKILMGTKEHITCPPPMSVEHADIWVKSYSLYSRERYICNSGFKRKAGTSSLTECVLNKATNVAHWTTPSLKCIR

[3] = molecular target: T3, IL-21/IL-15RαSu/CD137L (short version) fusion protein; assay: co-expression in CHO-K1 cells
T3 construct: also called 21s137L (short version)

[4] = molecular target: T4, TGFβRII/IL-15RαSu fusion protein; assay: co-expression in CHO cells; both chains shown in the purified complex by sandwich ELISA
T4 construct: also called TGFRs; TGFβR/IL-15RαSu
T4 chain: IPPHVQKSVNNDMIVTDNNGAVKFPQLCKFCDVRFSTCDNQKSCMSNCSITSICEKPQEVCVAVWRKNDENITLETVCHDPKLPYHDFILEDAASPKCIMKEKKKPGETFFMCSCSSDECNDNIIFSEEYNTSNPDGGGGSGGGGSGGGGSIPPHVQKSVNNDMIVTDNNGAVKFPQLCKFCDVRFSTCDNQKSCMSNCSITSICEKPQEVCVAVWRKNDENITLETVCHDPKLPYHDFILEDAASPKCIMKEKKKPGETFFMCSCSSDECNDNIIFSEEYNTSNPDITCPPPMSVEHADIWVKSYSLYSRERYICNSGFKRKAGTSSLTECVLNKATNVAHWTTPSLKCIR

[5] = molecular target: T5, IL-21/IL-15RαSu fusion protein; assay: co-expression in CHO-K1 cells; complex purified by anti-TF (IgG1) affinity and size exclusion chromatography
T5 construct: also called 21s

[6] = molecular target: T4, TGFβRII/IL-15RαSu fusion protein; assay: co-expression in CHO-K1 cells
[7] = molecular target: T6, TGFR/IL-15RαSu/IL-21 fusion protein; assay: co-expression in CHO-K1 cells
T6 construct: also called TGFRs21

[8] = molecular target: T7, TGFR/IL-15RαSu/anti-CD16scFv fusion protein; assay: co-expression in CHO-K1 cells
T7 construct: also called TGFRs16

[9] = molecular target: T8, TGFR/IL-15RαSu/CD137L fusion protein; assay: co-expression in CHO-K1 cells
T8 construct: also called TGFRs137L
T8 chain: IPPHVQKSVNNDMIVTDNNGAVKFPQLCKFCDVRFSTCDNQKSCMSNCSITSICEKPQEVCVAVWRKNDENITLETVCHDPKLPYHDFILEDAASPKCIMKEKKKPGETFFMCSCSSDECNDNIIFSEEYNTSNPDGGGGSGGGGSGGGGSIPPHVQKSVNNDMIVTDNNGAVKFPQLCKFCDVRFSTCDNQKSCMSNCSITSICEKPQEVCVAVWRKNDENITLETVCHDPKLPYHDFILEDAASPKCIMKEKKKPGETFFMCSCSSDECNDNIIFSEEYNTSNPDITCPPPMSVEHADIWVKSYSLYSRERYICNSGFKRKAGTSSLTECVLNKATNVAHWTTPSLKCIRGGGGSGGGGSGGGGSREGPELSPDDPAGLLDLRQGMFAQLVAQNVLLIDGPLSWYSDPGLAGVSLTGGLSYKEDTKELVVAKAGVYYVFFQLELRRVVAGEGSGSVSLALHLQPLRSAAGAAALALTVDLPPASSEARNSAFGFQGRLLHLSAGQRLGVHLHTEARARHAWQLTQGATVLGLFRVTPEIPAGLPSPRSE

[10] = molecular target: T9, IL-12/IL-15RαSu/αCD16scFv fusion protein; assay: co-expression in CHO-K1 cells
T9 construct: also called 12s16

[11] = molecular target: T10, IL-18/IL-15RαSu fusion protein; assay: co-expression in CHO-K1 cells
T10 construct: also called s18; 518

human CD16b on CHO cells = molecular target: T11, human CD16b on CHO cells (human, UniProt O75015 17-200); assay: flow cytometry on CHO cells stably expressing human CD16b; biotinylated anti-human tissue factor and PE streptavidin
T11 construct: also called CHO cells expressing human CD16b
T11 chain: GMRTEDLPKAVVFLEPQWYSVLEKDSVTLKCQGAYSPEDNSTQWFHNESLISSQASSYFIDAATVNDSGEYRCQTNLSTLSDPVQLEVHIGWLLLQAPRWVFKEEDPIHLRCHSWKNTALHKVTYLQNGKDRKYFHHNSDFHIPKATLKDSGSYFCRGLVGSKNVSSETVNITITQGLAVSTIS

Sequence of TGFβ1 (R&D systems) (P01137 279-390 limits assumed): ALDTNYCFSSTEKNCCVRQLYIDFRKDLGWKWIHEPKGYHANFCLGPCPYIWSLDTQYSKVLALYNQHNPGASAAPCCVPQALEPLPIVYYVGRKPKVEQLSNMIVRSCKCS
T3 sequence (chain, as listed by the source): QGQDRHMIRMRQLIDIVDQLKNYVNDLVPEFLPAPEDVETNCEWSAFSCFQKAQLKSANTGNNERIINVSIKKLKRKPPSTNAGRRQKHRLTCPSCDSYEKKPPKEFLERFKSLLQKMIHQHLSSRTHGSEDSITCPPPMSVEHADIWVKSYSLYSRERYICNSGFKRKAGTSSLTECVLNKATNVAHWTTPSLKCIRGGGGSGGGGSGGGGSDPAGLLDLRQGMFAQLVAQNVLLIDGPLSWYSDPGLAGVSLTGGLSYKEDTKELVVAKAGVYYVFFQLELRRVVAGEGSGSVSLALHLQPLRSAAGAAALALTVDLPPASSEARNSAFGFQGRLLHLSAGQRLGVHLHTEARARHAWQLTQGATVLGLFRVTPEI

B1: TGFR/TF/IL-15:CD16scFv/IL-15RαSu/IL-21 protein complex (other)
chain 1: IPPHVQKSVNNDMIVTDNNGAVKFPQLCKFCDVRFSTCDNQKSCMSNCSITSICEKPQEVCVAVWRKNDENITLETVCHDPKLPYHDFILEDAASPKCIMKEKKKPGETFFMCSCSSDECNDNIIFSEEYNTSNPDGGGGSGGGGSGGGGSIPPHVQKSVNNDMIVTDNNGAVKFPQLCKFCDVRFSTCDNQKSCMSNCSITSICEKPQEVCVAVWRKNDENITLETVCHDPKLPYHDFILEDAASPKCIMKEKKKPGETFFMCSCSSDECNDNIIFSEEYNTSNPDSGTTNTVAAYNLTWKSTNFKTILEWEPKPVNQVYTVQISTKSGDWKSKCFYTTDTECDLTDEIVKDVKQTYLARVFSYPAGNVESTGSAGEPLYENSPEFTPYLETNLGQPTIQSFEQVGTKVNVTVEDERTLVRRNNTFLSLRDVFGKDLIYTLYYWKSSSSGKKTAKTNTNEFLIDVDKGENYCFSVQAVIPSRTVNRKSTDSPVECMGQEKGEFRE[about 120 residues left out]
chain 2: not shown
B1 was tested, and the “IC50, TGFβ1 activity in HEK-Blue TGFβ reporter cells” value (TGFβ1 (R&D systems)) was 9.13 nM.

B2: 7t15-TGFRs (IL-7/TF/IL-15 with TGFβ Receptor II/IL-15RαSu) (other)
chain 1: not shown
chain 2: IPPHVQKSVNNDMIVTDNNGAVKFPQLCKFCDVRFSTCDNQKSCMSNCSITSICEKPQEVCVAVWRKNDENITLETVCHDPKLPYHDFILEDAASPKCIMKEKKKPGETFFMCSCSSDECNDNIIFSEEYNTSNPDGGGGSGGGGSGGGGSIPPHVQKSVNNDMIVTDNNGAVKFPQLCKFCDVRFSTCDNQKSCMSNCSITSICEKPQEVCVAVWRKNDENITLETVCHDPKLPYHDFILEDAASPKCIMKEKKKPGETFFMCSCSSDECNDNIIFSEEYNTSNPDITCPPPMSVEHADIWVKSYSLYSRERYICNSGFKRKAGTSSLTECVLNKATNVAHWTTPSLKCIR
For B2, the “IC50, TGFβ1 activity in HEK-Blue TGFβ reporter cells” value (TGFβ1 (R&D systems)) was 1.14 nM.

B3: IL-7/TF/IL-15 fusion protein (other)
chain: DCDIEGKDGKQYESVLMVSIDQLLDSMKEIGSNCLNNEFNFFKRHICDANKEGMFLFRAARKLRQFLKMNSTGDFDLHLLKVSEGTTILLNCTGQVKGRKPAALGEAQPTKSLEENKSLKEQKKLNDLCFLKRLLQEIKTCWNKILMGTKEHSGTTNTVAAYNLTWKSTNFKTILEWEPKPVNQVYTVQISTKSGDWKSKCFYTTDTECDLTDEIVKDVKQTYLARVFSYPAGNVESTGSAGEPLYENSPEFTPYLETNLGQPTIQSFEQVGTKVNVTVEDERTLVRRNNTFLSLRDVFGKDLIYTLYYWKSSSSGKKTAKTNTNEFLIDVDKGENYCFSVQAVIPSRTVNRKSTDSPVECMGQEKGEFRE[about 120 residues left out]
notes: also called 7t15
B3: binds [1]; binds [2]; binds [3]. B3: binds [4]; binds [5].

B4: TGFβRII/TF/IL-15 fusion protein (other)
chain: IPPHVQKSVNNDMIVTDNNGAVKFPQLCKFCDVRFSTCDNQKSCMSNCSITSICEKPQEVCVAVWRKNDENITLETVCHDPKLPYHDFILEDAASPKCIMKEKKKPGETFFMCSCSSDECNDNIIFSEEYNTSNPDGGGGSGGGGSGGGGSIPPHVQKSVNNDMIVTDNNGAVKFPQLCKFCDVRFSTCDNQKSCMSNCSITSICEKPQEVCVAVWRKNDENITLETVCHDPKLPYHDFILEDAASPKCIMKEKKKPGETFFMCSCSSDECNDNIIFSEEYNTSNPDSGTTNTVAAYNLTWKSTNFKTILEWEPKPVNQVYTVQISTKSGDWKSKCFYTTDTECDLTDEIVKDVKQTYLARVFSYPAGNVESTGSAGEPLYENSPEFTPYLETNLGQPTIQSFEQVGTKVNVTVEDERTLVRRNNTFLSLRDVFGKDLIYTLYYWKSSSSGKKTAKTNTNEFLIDVDKGENYCFSVQAVIPSRTVNRKSTDSPVECMGQEKGEFRE[about 120 residues left out]
notes: also called TGFRt15; TGFR/TF/IL-15
B4: binds [6]; binds [1]; binds [7]. B4: binds [8]; binds [9].

B5: IL-18/TF/IL-15 fusion protein (other)
chain: [about 150 residues left out]SGTTNTVAAYNLTWKSTNFKTILEWEPKPVNQVYTVQISTKSGDWKSKCFYTTDTECDLTDEIVKDVKQTYLARVFSYPAGNVESTGSAGEPLYENSPEFTPYLETNLGQPTIQSFEQVGTKVNVTVEDERTLVRRNNTFLSLRDVFGKDLIYTLYYWKSSSSGKKTAKTNTNEFLIDVDKGENYCFSVQAVIPSRTVNRKSTDSPVECMGQEKGEFRE[about 120 residues left out]
notes: also called 18t15
B5: binds [10].

B6: IL-12/TF/IL-15 fusion protein (other)
chain: IWELKKDVYVVELDWYPDAPGEMVVLTCDTPEEDGITWTLDQSSEVLGSGKTLTIQVKEFGDAGQYTCHKGGEVLSHSLLLLHKKEDGIWSTDILKDQKEPKNKTFLRCEAKNYSGRFTCWWLTTISTDLTFSVKSSRGSSDPQGVTCGAATLSAERVRGDNKEYEYSVECQEDSACPAAEESLPIEVMVDAVHKLKYENYTSSFFIRDIIKPDPPKNLQLKPLKNSRQVEVSWEYPDTWSTPHSYFSLTFCVQVQGKSKREKKDRVFTDKTSATVICRKNASISVRAQDRYYSSSWSEWASVPCSGGGGSGGGGSGGGGSRNLPVATPDPGMFPCLHHSQNLLRAVSNMLQKARQTLEFYPCTSEEIDHEDITKDKTSTVEACLPLELTKNESCLNSRETSFITNGSCLASRKTSFMMALCLSSIYEDLKMYQVEFKTMNAKLLMDPKRQIFLDQNMLAVIDELMQALNFNSETVPQKSSLEEPDFYKTKIKLCILLHAFRIRAVTIDRVMSYLNASSGTTNTVAAYNLTWKSTNFKTILEWEPKPVNQVYTVQISTKSGDWKSKCFYTTDTECDLTDEIVKDVKQTYLARVFSYPAGNVESTGSAGEPLYENSPEFTPYLETNLGQPTIQSFEQVGTKVNVTVEDERTLVRRNNTFLSLRDVFGKDLIYTLYYWKSSSSGKKTAKTNTNEFLIDVDKGENYCFSVQAVIPSRTVNRKSTDSPVECMGQEKGEFRE[about 120 residues left out]
notes: also called 12t15
B6: binds [11].

B7: IL-18/TF/IL-15:IL-12/IL-15RαSu protein complex (other)
chain 1: not shown
chain 2: IWELKKDVYVVELDWYPDAPGEMVVLTCDTPEEDGITWTLDQSSEVLGSGKTLTIQVKEFGDAGQYTCHKGGEVLSHSLLLLHKKEDGIWSTDILKDQKEPKNKTFLRCEAKNYSGRFTCWWLTTISTDLTFSVKSSRGSSDPQGVTCGAATLSAERVRGDNKEYEYSVECQEDSACPAAEESLPIEVMVDAVHKLKYENYTSSFFIRDIIKPDPPKNLQLKPLKNSRQVEVSWEYPDTWSTPHSYFSLTFCVQVQGKSKREKKDRVFTDKTSATVICRKNASISVRAQDRYYSSSWSEWASVPCSGGGGSGGGGSGGGGSRNLPVATPDPGMFPCLHHSQNLLRAVSNMLQKARQTLEFYPCTSEEIDHEDITKDKTSTVEACLPLELTKNESCLNSRETSFITNGSCLASRKTSFMMALCLSSIYEDLKMYQVEFKTMNAKLLMDPKRQIFLDQNMLAVIDELMQALNFNSETVPQKSSLEEPDFYKTKIKLCILLHAFRIRAVTIDRVMSYLNASITCPPPMSVEHADIWVKSYSLYSRERYICNSGFKRKAGTSSLTECVLNKATNVAHWTTPSLKCIR
notes: multi-chain chimeric polypeptide made in CHO-K1 cells, glycosylated; chains associate through IL-15 and the IL-15Rα sushi domain; also called 18t15-12s
B7: no binding (tested: 1.2 µg/mL) (human CD16b on CHO cells).
